Measured values as given in US11000038B2, “Pyridone compounds and agricultural and horticultural fungicides containing the same as active ingredients” (priority 2017, dated 2021).

Assays:
[1] = test system: rice blast fungi (Magnaporthe grisea); assay type: in vivo; conditions: rice blast, spray treatment of rice plants
[2] = test system: cucumber anthracnose fungi (Colletotrichum orbiculare); assay: Test Example H: cucumber anthracnose, spray treatment of cucumber plants; conditions: cucumber anthracnose, 250 ppm spray (2.5 ml/pot), 6 to 10 days after inoculation
[3] = test system: tomato late blight fungi (Phytophthora infestans); assay type: in vivo; conditions: tomato late blight, spray treatment of tomato plants

SMILES | Test A control value [1] | Test H control value [2] | Test F control value [3]
Cc1ccc(-n2cc(Br)c(=O)c(Br)c2-c2c(F)cc(F)cc2F)c(C)c1 [Compound 257] | L (L shows the control value of 50% or less) | H (H shows the control value of more than 50%) | L (L shows the control value of 50% or less)
Cc1ccc(-n2cc(Cl)c(=O)c(Br)c2-c2c(F)cc(F)cc2F)c(C)c1 [Compound 258] | H (H shows the control value of more than 50%) | H (H shows the control value of more than 50%) | L (L shows the control value of 50% or less)
Cc1ccc(-n2cc(Cl)c(=O)c(Cl)c2-c2c(F)cc(F)cc2F)c(C)c1 [Compound 259] | H (H shows the control value of more than 50%) | H (H shows the control value of more than 50%) | L (L shows the control value of 50% or less)
COCn1cc(C)c(=O)c(C)c1-c1c(F)cc(F)cc1F [Compound 260] | L (L shows the control value of 50% or less) | L (L shows the control value of 50% or less) | L (L shows the control value of 50% or less)
Cc1ccccc1-n1cc(I)c(=O)c(C)c1-c1c(F)cc(F)cc1F [Compound 261] | H (H shows the control value of more than 50%) | H (H shows the control value of more than 50%) | L (L shows the control value of 50% or less)
Cc1ccccc1-n1cc(C)c(=O)c(C)c1-c1ccc([S+](C)[O-])cc1 (stereo not drawn) [Compound 262] | L (L shows the control value of 50% or less) | L (L shows the control value of 50% or less) | L (L shows the control value of 50% or less)
Cc1ccccc1-n1cc(C)c(=O)c(C)c1-c1ccc(S(C)(=O)=O)cc1 [Compound 263] | L (L shows the control value of 50% or less) | L (L shows the control value of 50% or less) | L (L shows the control value of 50% or less)
COc1ccc(-n2cc(Br)c(=O)c(Cl)c2-c2c(F)cc(F)cc2F)c(C)c1 [Compound 264] | H (H shows the control value of more than 50%) | H (H shows the control value of more than 50%) | H (H shows the control value of more than 50%)
Cc1ccccc1-n1cc(Cl)c(=O)c(C)c1-c1c(F)cc(F)cc1F [Compound 265] | H (H shows the control value of more than 50%) | H (H shows the control value of more than 50%) | L (L shows the control value of 50% or less)
COc1cc(F)c(-c2c(C)c(=O)c(Br)cn2-c2ccccc2C)c(F)c1 [Compound 266] | H (H shows the control value of more than 50%) | H (H shows the control value of more than 50%) | L (L shows the control value of 50% or less)
C#CCn1cc(C)c(=O)c(C)c1-c1c(F)cc(F)cc1F [Compound 267] | L (L shows the control value of 50% or less) | H (H shows the control value of more than 50%) | L (L shows the control value of 50% or less)
C=CCn1cc(C)c(=O)c(C)c1-c1c(F)cc(F)cc1F [Compound 268] | L (L shows the control value of 50% or less) | L (L shows the control value of 50% or less) | L (L shows the control value of 50% or less)
CSCn1cc(C)c(=O)c(C)c1-c1c(F)cc(F)cc1F [Compound 269] | L (L shows the control value of 50% or less) | L (L shows the control value of 50% or less) | L (L shows the control value of 50% or less)
COc1ccc(-n2cc(Cl)c(=O)c(Cl)c2-c2c(F)cc(F)cc2F)c(C)c1 [Compound 270] | H (H shows the control value of more than 50%) | H (H shows the control value of more than 50%) | L (L shows the control value of 50% or less)
Cc1ccccc1-n1cc(C)c(=O)c(C)c1-c1ccncc1 [Compound 271] | H (H shows the control value of more than 50%) | L (L shows the control value of 50% or less) | L (L shows the control value of 50% or less)
C#Cc1cn(-c2ccccc2C)c(-c2c(F)cc(F)cc2F)c(C)c1=O [Compound 272] | H (H shows the control value of more than 50%) | H (H shows the control value of more than 50%) | L (L shows the control value of 50% or less)
Cc1cc(F)ccc1-n1cc(Br)c(=O)c(Br)c1-c1c(F)cc(F)cc1F [Compound 273] | H (H shows the control value of more than 50%) | H (H shows the control value of more than 50%) | L (L shows the control value of 50% or less)
Cc1cc(F)ccc1-n1cc(Br)c(=O)c(Cl)c1-c1c(F)cc(F)cc1F [Compound 274] | H (H shows the control value of more than 50%) | H (H shows the control value of more than 50%) | L (L shows the control value of 50% or less)
Cc1cc(F)ccc1-n1cc(Cl)c(=O)c(Br)c1-c1c(F)cc(F)cc1F [Compound 275] | H (H shows the control value of more than 50%) | H (H shows the control value of more than 50%) | L (L shows the control value of 50% or less)
Cc1cc(F)ccc1-n1cc(Cl)c(=O)c(Cl)c1-c1c(F)cc(F)cc1F [Compound 276] | H (H shows the control value of more than 50%) | H (H shows the control value of more than 50%) | L (L shows the control value of 50% or less)
CC(=O)c1cn(-c2ccccc2C)c(-c2c(F)cc(F)cc2F)c(C)c1=O [Compound 277] | L (L shows the control value of 50% or less) | H (H shows the control value of more than 50%) | L (L shows the control value of 50% or less)
Cc1ccccc1-n1cc(F)c(=O)c(C)c1-c1c(F)cc(F)cc1F [Compound 278] | H (H shows the control value of more than 50%) | H (H shows the control value of more than 50%) | L (L shows the control value of 50% or less)
COc1cc(F)c(-c2c(Cl)c(=O)c(Br)cn2-c2cc(OC)ccc2C)c(F)c1 [Compound 279] | H (H shows the control value of more than 50%) | H (H shows the control value of more than 50%) | H (H shows the control value of more than 50%)
Cc1ccc(O)cc1-n1cc(Br)c(=O)c(Cl)c1-c1c(F)cc(F)cc1F [Compound 280, 5-bromo-3-chloro-1-(5-hydroxy-2-methylphenyl)-2-(2,4,6-trifluorophenyl)pyridin-4(1H)-one] | H (H shows the control value of more than 50%) | H (H shows the control value of more than 50%) | L (L shows the control value of 50% or less)
CCc1cn(CC(C)C)c(-c2c(F)cc(F)cc2F)c(CC)c1=O [Compound 281] | H (H shows the control value of more than 50%) | H (H shows the control value of more than 50%) | L (L shows the control value of 50% or less)
COCCOc1ccc(C)c(-n2cc(Br)c(=O)c(Cl)c2-c2c(F)cc(F)cc2F)c1 [Compound 282] | H (H shows the control value of more than 50%) | H (H shows the control value of more than 50%) | L (L shows the control value of 50% or less)
COCCOc1ccc(C)c(-n2cc(Br)c(=O)c(Cl)c2-c2c(F)cc(OC)cc2F)c1 [Compound 283] | H (H shows the control value of more than 50%) | H (H shows the control value of more than 50%) | L (L shows the control value of 50% or less)
Cc1ccc(OCC#N)cc1-n1cc(Br)c(=O)c(Cl)c1-c1c(F)cc(F)cc1F [Compound 284] | H (H shows the control value of more than 50%) | H (H shows the control value of more than 50%) | L (L shows the control value of 50% or less)
